# Measured values taken from PubChem BioAssay AID1476 (National Center for Advancing Translational Sciences (NCATS), 2009).
# Values joined by “and” are separate entries in the source; they are usually repeats but may differ in a detail not shown here. Identical values can stand only once. Out of some 200,000 compounds screened, about 4,500 (2.2%) were called active. Inconclusive results, whose numbers are uncertain, are shown with a selection of clear calls. Calls follow the shape of the dose curve; as a rule, active = well fitted inhibition curve with a large enough effect; inconclusive = small, poorly fitted or top-dose-only effect, or effect the other way; inactive = flat fitted curve, though single readings scatter. A potency beside an inconclusive call is a rough fit, not a confirmed value.
# Biological target: Cruzipain (Trypanosoma cruzi) (UniProt P25779)
# Experiment: qHTS Assay for Promiscuous and Specific Inhibitors of Cruzain (without detergent); also: nearly all actives have a fitted effect of over 40% in size;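 as to max response, negative = inhibition: plate controls were enzyme without inhibitor for no effect and buffer without enzyme for full effect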
# Conditions: purified cruzain, Z-FR-AMC fluorescence, no detergent
# Procedure, shortened: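 Detergent-free condition (0.00005% Triton X-100) in acetate buffer pH 5.5 with DTT. 1.5 nM enzyme and compound were pre-mixed 15 min, then 2 uM Z-FR-AMC substrate added; reaction progress from fluorescence change between first and third reads (60 s).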
# Potency is read from the fitted curve at half-maximal effect; tags tell the direction and shape of the fitted curve.
# Sequence of UniProt P25779 (P25779 whole entry, looked up): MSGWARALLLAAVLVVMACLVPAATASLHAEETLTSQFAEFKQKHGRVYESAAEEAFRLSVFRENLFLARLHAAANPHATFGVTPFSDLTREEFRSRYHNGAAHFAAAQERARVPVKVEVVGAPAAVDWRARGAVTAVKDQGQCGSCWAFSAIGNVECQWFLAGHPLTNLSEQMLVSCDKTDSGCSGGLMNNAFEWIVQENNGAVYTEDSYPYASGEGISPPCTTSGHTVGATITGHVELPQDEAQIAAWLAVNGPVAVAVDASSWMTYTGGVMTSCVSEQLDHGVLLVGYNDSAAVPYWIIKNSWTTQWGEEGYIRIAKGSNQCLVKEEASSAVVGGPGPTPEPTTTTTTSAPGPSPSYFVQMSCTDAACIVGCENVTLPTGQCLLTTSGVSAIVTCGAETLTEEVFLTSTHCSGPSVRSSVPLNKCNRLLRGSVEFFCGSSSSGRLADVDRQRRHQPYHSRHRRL
SMILES,Potency,"max response, negative = inhibition"
Cc1cc(C(=O)N/N=C/c2ccc(-c3cccc(Cl)c3Cl)o2)n[nH]1,"inconclusive: 31.6 µM [inhibitor, single point]",
Cc1nc(N[C@@H](Cc2c[nH]c3ccccc23)C(=O)O)c2oc3ccccc3c2n1,,inactive: 9.8%
c1ccc(-n2ncc3c2ncn2nc(-c4ccco4)nc32)cc1,"inconclusive: 25.1 µM [inhibitor, single point]",
O=C(NC1CC(=O)N(c2cccc(F)c2)C1)c1ccc(S(=O)(=O)N2CCCC2)cc1 (stereo not given),,inactive: -2.98%
O=[N+]([O-])c1cc(C(F)(F)F)ccc1N1CCN(S(=O)(=O)c2ccc3ccccc3c2)CC1,active: 25.1 µM,
O=C(N/N=C\c1c(O)ccc2ccccc12)c1ccc(Cn2cccn2)o1,,inactive: 2.98%
COc1cccc(Cn2c(Oc3ccccc3)nc3c2c(=O)n(C)c(=O)n3C)c1,"inconclusive: 31.6 µM [activator, single point]",
COC(=O)CCC(C)C1CCC2C3C(C[C@H](O)C12C)C1(C)CC[C@@H](O)CC1C[C@H]3O (stereo not given in full),"inconclusive: 15.8 µM [activator, partial curve]",
CCOC(=O)c1[nH]c2ccc(F)cc2c1NC(=O)c1cc(OC)c(OC)c(OC)c1,"inconclusive: 39.8 µM [activator, single point]",
CCCNC(=O)NC(=O)COC(=O)c1oc2ccc(OCC)cc2c1C,"inconclusive: 0.158 µM [inhibitor, single point]",
COc1cc(/C=C/C(=O)N2CCCCC2=O)cc(OC)c1OC,,inactive: 7.11%
CC/C(=C(/c1ccccc1)c1ccc(OCCN(C)C)cc1)c1ccccc1,,inactive: 4.78%
CCOC(=O)c1ccc(CN(Cc2ccc(F)cc2)S(=O)(=O)c2cc(C(=O)Nc3cccc(C(F)(F)F)c3)ccc2F)cc1,"inconclusive: 5.01 µM [inhibitor, full curve, poor fit]",
COc1ccc(NC(=O)c2oc3ccccc3c2NC(=O)c2ccc3c(c2)OCO3)cc1,"inconclusive: 39.8 µM [inhibitor, single point]",
CCC(C(=O)Nc1cccc(Cl)c1C)n1nc(-c2ccc(C)cc2)ccc1=O (stereo not given),"inconclusive: 31.6 µM [activator, single point]",
Cc1cc(C)c(NC(=O)CSc2nc3ccccc3nc2N2CCCCC2)c(C)c1,,inactive: 1.54%
CCOC(=O)c1c(NC(=O)c2cccnc2)sc(C)c1C,"inconclusive: 31.6 µM [activator, single point]",
CCC(Sc1ncccc1C(=O)Oc1cccc([N+](=O)[O-])c1)C(=O)Nc1ccccc1OC (stereo not given),"inconclusive: 39.8 µM [inhibitor, single point]",
Cc1ccccc1-c1cc(C(=O)Nc2sc(C)c(C)c2C(N)=O)c2ccccc2n1,active: 20 µM,
NC(=S)N/N=C/C=C/c1ccccc1,active: 15.8 µM,
CCn1cc(/C=N\NC(=O)c2ccccc2Cl)cn1,,inactive: 0.154%
O=C(Cn1cnc2c(oc3ccccc32)c1=O)Nc1ccccc1C(F)(F)F,,inactive: -23.6%

SMILES,Potency,"max response, negative = inhibition"
O=C(CSc1cn(Cc2ccccc2)c2ccccc12)N1CCOCC1,"inconclusive: 39.8 µM [activator, single point]",
COC(=O)[C@@]1(Cc2ccccc2)[C@H]2c3cc(C(=O)N(C)C)n(Cc4cc(F)c(F)c(F)c4)c3C[C@H]2CN1C(=O)c1ccccc1,"inconclusive: 12.6 µM [activator, partial curve]",
Nc1ccc(N(c2ccccc2)c2ccc(N)cc2)cc1,active: 31.6 µM,
Cc1ccc(Cn2nnnc2CN2CCC(n3nnc4cc(C(F)(F)F)ccc43)CC2)cc1,"inconclusive: 20 µM [activator, partial curve]",
Cn1c(=O)c2c(-c3ccccc3)n3c4ccccc4nc(-c4ccccc4)c3c2n(C)c1=O,,inactive: -2.32%
CC(=O)N[C@H](Cc1ccc(O)cc1)C(=O)O,,inactive: -1.36%
O=C(COc1cccc2ccccc12)N/N=C/c1ccc(Sc2nc3ccccc3s2)o1,"inconclusive: 3.98 µM [inhibitor, full curve]",
COc1cccc(-c2nc(SCc3cc(=O)c4ccc(C)c(C)c4[nH]3)n[nH]2)c1,,inactive: -16.8%
CCn1nc([N+](=O)[O-])c(C(C#N)c2nc3cc(C(F)(F)F)ccc3s2)c(Cl)c1=O (stereo not given),"inconclusive: 39.8 µM [activator, single point]",
CCOc1cccc(C(=O)Nc2ccc(S(=O)(=O)N(Cc3ccccc3)c3ccccc3)cc2)c1,"inconclusive: 39.8 µM [inhibitor, single point]",
Cc1ccc(C(=O)NCC(=O)OC(C)C(=O)NCCC2=CCCCC2)cc1C (stereo not given),"inconclusive: 25.1 µM [inhibitor, single point]",
CCCCN(CCCNC(=O)CN1N=C(c2ccccc2)CCC1=O)c1ccccc1,"inconclusive: 39.8 µM [activator, single point]",
Cc1coc2c1C(=O)C(=O)c1c-2ccc2c1CCCC2(C)C,,inactive: -12.2% and inactive: 4.08%
CCn1c(COc2ccc(C)cc2)nnc1SCC(=O)Nc1cc(OC)ccc1OC,"inconclusive: 39.8 µM [activator, single point]",
CCOc1ccc2nc(SCC(=O)N3c4ccccc4Sc4ccccc43)sc2c1,"inconclusive: 31.6 µM [inhibitor, single point]",
O=C(CSc1nnc(SCc2ccc(Cl)cc2)s1)N/N=C/c1c[nH]c2ccccc12,"inconclusive: 25.1 µM [inhibitor, single point]",
CCOc1cc(C2C(C(=O)OC)=C(C)NC3=C2C(=O)c2ccccc23)c(Br)cc1OC (stereo not given),"inconclusive: 39.8 µM [activator, single point]",
Cc1c(CC(=O)NCc2ccccc2)c(=O)oc2c(C)c(O)ccc12,,inactive: 2.88%
Cc1cc(C)c2nc(NC(=O)c3ccc(S(=O)(=O)N4CCCC4)cc3)sc2c1,"inconclusive: 7.94 µM [activator, single point]",
COc1ccccc1NC(=O)c1nnn(CC(=O)Nc2cccc(SC)c2)c1N,"inconclusive: 25.1 µM [inhibitor, single point]",
O=c1c([N+](=O)[O-])c(N2CCCCCC2)c2ccccc2n1-c1ccccc1,"inconclusive: 25.1 µM [inhibitor, single point]",
CCCCC(CC)CNC(=O)CCCc1nnc2n(CCC)c(=O)c3sccc3n12 (stereo not given),"inconclusive: 39.8 µM [activator, single point]",

SMILES,Potency,"max response, negative = inhibition"
Cc1ccc(NC(=O)CSCn2nnc3c(=O)[nH]c(Cc4ccc(F)cc4)nc32)c(C)c1,,inactive: -25.6%
Cc1c(O)nc(SCC(=O)Nc2ccc3c4c(cccc24)CC3)n(-c2ccc(F)cc2)c1=O,"inconclusive: 39.8 µM [activator, single point]",
O=C(Nc1cccc(-c2cn3ccccc3n2)c1)C1CC1,,inactive: -2.17%
COc1ccc(-c2[nH]n(-c3ccc([N+](=O)[O-])cc3)c(=O)c2C=NCc2ccc(F)cc2)cc1,active: 25.1 µM,
Cc1ccc2cc(CN(C(=O)c3cccnc3)C(C)C)c(=O)[nH]c2c1,"inconclusive: 20 µM [inhibitor, partial curve, poor fit]",
O=C(Nc1ccc2c(c1)OCO2)C1CCN(S(=O)(=O)c2cccs2)CC1,"inconclusive: 31.6 µM [inhibitor, single point]",
Cc1cc(C)c2c(c1)-c1c(ssc1=S)C(C)(C)N2C(=O)CSc1nncn1C,"inconclusive: 31.6 µM [activator, single point]",
CCOc1ccc(CNC(=O)C2CCN(S(=O)(=O)N3CCCCC3)CC2)cc1,,inactive: 1.3%
COCCNC(=O)CSc1c2c(nc3cc(Cl)ccc13)CCCC2,"inconclusive: 39.8 µM [inhibitor, single point]",
Cc1ccc(NC(=O)N2N=C(c3ccc(F)cc3)CC2c2ccc(F)cc2)cc1 (stereo not given),active: 1.26 µM,
COc1cccc(CC(NC(C)=O)C(=O)NC2CCN(c3nc(C)cc(C)c3C#N)CC2)c1 (stereo not given),"inconclusive: 39.8 µM [activator, single point]",
CCOC(=O)Nc1oc2ccccc2c(=O)c1CN1CCOCC1,"inconclusive: 39.8 µM [activator, single point]",
CCCCNS(=O)(=O)c1ccc2nc(-c3cccnc3)cc(C(=O)NCCC)c2c1,,inactive: -7.54%
ClC1=C(Cl)C2(Cl)C3C(Cl)C(Cl)CC3C1(Cl)C2(Cl)Cl (stereo not given),,inactive: -7.55%
O=C(c1cccs1)N(Cc1cccnc1)c1nc2ccc(F)cc2s1,,inactive: -0.826%
Cc1ccc(C(=O)NC(NC(=O)c2ccc(C)cc2)C(Cl)Cl)cc1,"inconclusive: 39.8 µM [inhibitor, single point]",
Cc1ccccc1Cn1nc(C)c(NC(=O)c2noc3c2CC(C(C)(C)C)CC3)c1C (stereo not given),"inconclusive: 31.6 µM [activator, single point]",
C=CCn1c(O)c(N=NC(=S)Nc2cccc(C)c2)c2ccccc21,"inconclusive: 31.6 µM [inhibitor, single point]",
O=C1Cc2c([nH]c3ccc(Br)cc23)-c2ccccc2N1,"inconclusive: 39.8 µM [inhibitor, single point]",
Cc1ccc(-c2nnc(CSc3nc(C(C)C)nc4sc(C)c(C)c34)o2)cc1,"inconclusive: 31.6 µM [inhibitor, single point]",
Cn1c(=O)oc2cc(S(=O)(=O)N3CCC(C(=O)N4CC=C(c5ccccc5)CC4)CC3)ccc21,"inconclusive: 39.8 µM [activator, single point]",
